B1: CPEB3 Ribozyme (parent)
chain: UAACAGGGGGCCACAGCAGAAGCGUUCACGUCGCAGCCCCUGUCAGAUUCUGGUGAAUCUGCGAAUUCUGCUGUAUAUCUC

Read counts are not given, so values of variants with three or more changes are uncertain.

In the series the parent is B1. In words: self-cleavage, relative activity (ratio to wild type); higher = more cleavage; in vitro, sequencing. The gist of the method: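 Libraries of CPEB3 self-cleaving ribozyme mutants came from rounds of error-prone PCR and carried barcodes, which DNA sequencing matched to variants. In vitro transcription used T7 RNA polymerase at 37°C for 5 hours, with a further 15 min in DNase I before EDTA stopped the reaction; the ribozymes cleaved during both steps. The RNA was reverse transcribed with template switching and sequenced on Illumina. Relative activity is the cleaved/total read fraction of a variant divided by that of the unmutated ribozyme, averaged over three batches with at least 5 reads.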
On to G10A U41C U58C U72C, for which the self-cleavage was 0.08. For G10A U31A A77U the value was 0.23; for C12A A13G A15G U41C U51A U67C U74A, 0.11. Next, C11U C17U A20U U31C C39A U51C: 0.04; C11U A15U A28U U43C A64G: 0.14; C11G C14U C37G: 0.13. With G10A C11A U31G C34A C38U G46A U48G, the self-cleavage was 0.12.

For C11U A65G U80C, the self-cleavage stood at 0.11. For C11A A13G A20G U25A C40U A65U the value was 0.04.

With G10C A13U A65G, the self-cleavage amounted to 0.05. Next, C11G A21G U26A A56G A57U: 0.36. Consider C11G U26C U41A, for which the self-cleavage was 0.06. For G10U U25C U51A the value was 0.06. For C11G A18G A28G U43G the value was 0.06; for C11U C17U C32A, 0.08. Next, G10A G33A A47G U72C U80C: 0.11. For G10U U31C U41A, the self-cleavage was determined as 0.05. Turning to G10C A21G A56G, the self-cleavage was 0.08. For G10A A20G U25C the value was 0.31.

As to G10A U48C A64U, the self-cleavage worked out at 0.05. For C11G A20C C23U G63A A64G A77U the value was 0.04. For G10C A20C A45U A56G C59U U67C the value was 0.02; for C11G A13G U25C, 0.33; for C11U U25C U49A, 0.05. For C11A A15U A35U the value was 0.16; for G10U C37U U54C U66C, 0.08.

Consider C11U U25C U26C, for which the self-cleavage came out at 0.45.

Turning to C12A A13G A15C C23U U69C U72C U78C, the self-cleavage stood at 0.06. Take C11G A18G A21U A45U C59A: the self-cleavage turned out to be 0.17. Next, C12A A13U A15G C39A A56G U60A: 0.22; C11A U48C U66C U72C U74C A75U U78C: 0.05; C11U C12A A13G U26C A35U A45G U78C: 0.04.

As for C11G A15G C23G U26C A45C U49A A56G, the self-cleavage stood at 0.25. Turning to C11A A45C U48C C59A U76C, the self-cleavage was 0.05. For C11A A18U A57G U74A the value was 0.47; for G10A U26C U49C U51C A75U, 0.07; for G10A G33A A47U U66C, 0.11. For C11U U43C U69A U78C the value was 0.07; for C11G A35U A45G U78C, 0.08.

Regarding G10A C40U U49C, the self-cleavage amounted to 0.06. For G10A C14U U69C G70U the value was 0.16.

As to G10U A13U G24A A28G G52A, the self-cleavage stood at 0.04. Next, C12A A13G C27G C62G U74C: 0.06.

Turning to C11G U51C U80C, the self-cleavage was 0.5. In the case of C11U A28U A47G G53A G63A, the self-cleavage stood at 0.09. Consider C11A A13U A21G A28C G73A, for which the self-cleavage is 0.11. Consider G10A U51A A57G A64G, for which the self-cleavage stood at 0.11. Next, G10U A18C A45G G61U A64G: 0.03; C11G C14U C32U U58C U67A: 0.07. Take G10A C40U U51A A64U: the self-cleavage was found to be 0.05.

On to C11G G30U C38A, for which the self-cleavage turned out to be 0.05. For C11U A18G U66C the value was 0.08.

On to C11G C38U A64U A65G, for which the self-cleavage amounted to 0.07. As for C11G A18C A21G A57G A64G, the self-cleavage was 0.06.

Consider C11A C39U U41A U43C U49G U60A, for which the self-cleavage is 0.09. Next, C11A C37G C62G A65G U78C: 0.03; G10A U26C C37U: 0.16; C11U U25C A35U U74A: 0.04.

With C11G U41C A57G U66C U78C, the self-cleavage came out at 0.05. In the case of C11U A18G A21G C59A U66C, the self-cleavage amounted to 0.04.

Turning to C11G A13G U54C, the self-cleavage is 0.54. Consider C11U A13U C62U U67C, for which the self-cleavage was 0.13. Next, C11U A13U U31G A65U: 0.04; G10U G19U C39A G42A: 0.1; G10A A45U U60A U67C U78A: 0.11. As for C11U A28G A56G U67C, the self-cleavage worked out at 0.07. As to G10A U26C A65G, the self-cleavage is 0.26. Next, G10C G36A C40U U49C U72G: 0.06; G10A A35U U41C U54C A65G U80A: 0.04; C11U U26C C40G U41C C59U: 0.05.

Consider C11U A15G C32A U48C U51C U78C, for which the self-cleavage amounted to 0.09.

With C11G A13U U48C, the self-cleavage is 0.56.

For G10A A20G U43A U48C G61A U72C, the self-cleavage worked out at 0.03. Next, C11U G30U C37U U48C U60C U66C U67C: 0.2.

G10A A21G A35C U48C G52C U54G: the self-cleavage stood at 0.03. Turning to G10U A45G U58A U80C, the self-cleavage worked out at 0.13. For C11U A18G A35U U66A the value was 0.17. For C11U C12U U43C A57G U80C the value was 0.43.

Take C11G A13G U41A U74C: the self-cleavage came out at 0.07.

For the variant G10C U49C A65G U67C, the self-cleavage turned out to be 0.12. With C11U A18G C27G U51C, the self-cleavage came out at 0.16. For G10A U41A U43A U72A the value was 0.04; for C11A U43G G63A A75U, 0.09.

Regarding G10A U26C U43C A57G A64G C68A, the self-cleavage worked out at 0.08. For C11A A20G C59A, the self-cleavage turned out to be 0.2. Regarding C11U A35G A65G G73U, the self-cleavage came out at 1.26. Next, G10C U26A U49A G52A G61A C68U: 0.32; C11A A28G A56U C79U: 0.2; C11U U25C A28U U54A A75G: 0.03. Next, C11U U41A A64U U78A: 0.02. Next, C11G U25A C38A C40U G70C U72A U80C: 0.02; C11U U25C A35U U60A: 0.06; C11G U31C A35G U67A: 0.34. With G10A U43A A56G A77G U80C, the self-cleavage was 0.06. On to C11G A35U U60C U78C, for which the self-cleavage came out at 0.23.

In the case of G10A A28G U60A U74C, the self-cleavage was 0.05. Next, G10A G30A U31C A47G A65U U72A U78C: 0.06; G10A A20G A75U: 0.34.

Regarding C11G A20U A28G U41C, the self-cleavage turned out to be 0.04. Take C11A G16A A56U: the self-cleavage was 0.3. For G10A A20G A47U U67A U80C the value was 0.07; for C11U A57G G63A, 0.27; for C11G A15U U43A, 0.52. For C11U A13G A20G U26A C39A U69A the value was 0.04. Next, C11G A13G U78A C81U: 0.15. Consider G10C G16U A56U, for which the self-cleavage came to 0.06. For C11G A20U C39A U49A U51C, the self-cleavage was 0.2. As for G10A G24A U54G U60A U78C, the self-cleavage is 0.05.

As for C11U C27G A28G C32U A45G U49C U51A, the self-cleavage is 0.01.

As to G10C C12A A13G A57G A77G, the self-cleavage was 0.09. Next, G10A U25C U76A: 0.07. For C11U A28U A47G the value was 0.38; for C11U U26A A47G, 0.26. Next, G10A A21G A28U U49A U69A: 0.22; G10A U54C U66C U78A: 0.13.

Turning to G10U A35G G52A C68G U69C, the self-cleavage was 0.07. C11A A15G C17U U31C: the self-cleavage amounted to 0.11.

C11A U54G U78C: the self-cleavage came to 0.06.

C11U G16U U31C: the self-cleavage came out at 0.04. Consider G10A C11A A15G U26C G33A A56G, for which the self-cleavage worked out at 0.03.

Turning to C11A A15G U25C A64G U67C C68G A77G, the self-cleavage was found to be 0.16. Next, C11U U48C A56G A65U: 0.04; C11G U48A C71G: 0.19. Next, C11A G22A A45U A47U U54G U66A A75G: 0.02. Next, G10C U60A U76C: 0.14; C11A U41C U67C U76A: 0.06; G10C C14U G24A A56G U78A: 0.04. C11G U41C A56U U69A U74C C81A: the self-cleavage worked out at 0.11. For G10A C34G U54C U60C G70C the value was 0.06; for C11G A13U A35G U43C U69C, 0.08; for C12A A13G G19A U26A A57G U69A U72C, 0.03.

Consider G10U G16A U26C U48A, for which the self-cleavage turned out to be 0.06. In the case of C11G U51A A57G, the self-cleavage stood at 0.25. Next, C11G U49C A56G U67A: 0.17; C11G C32U C71U U74C: 0.04; G10A A20U U26G A45G U76A: 0.19.

For the variant C11U A15G G42A A64U U72C U80A, the self-cleavage was 0.05. For C11G A21G U72C the value was 0.3.

For C11A G16C G24C U31C G46A A77G, the self-cleavage was determined as 0.04.

For C11U U60C U66A U69C A77U, the self-cleavage was found to be 0.13. Regarding C11U A13G A35G A45G U80C, the self-cleavage came out at 0.7. For C11U U49C A56G U69A A75G, the self-cleavage came to 0.15. For the variant G10A U48C A65C U67C A77U, the self-cleavage stood at 0.03.

Take G10A A35C U41C U43C U80C: the self-cleavage worked out at 0.29. Turning to C12A A13G A21G U26A A28G U51G G61A, the self-cleavage was 0.04. Next, C11U A13U A64G: 0.38. In the case of C11G A18G A21U A64G U78C, the self-cleavage was 0.07.

For C11A A21G U66C, the self-cleavage worked out at 0.4. Next, G10C U48C A56G A65U: 0.07; G10U U31A A35G G52C C59A U66C: 0.07.

For G10C G33A U43C, the self-cleavage amounted to 0.12.

In the case of C11G A13C C14A C38A C40U A45U U66A, the self-cleavage was 0. For G10A U51C U60C G70A U78C the value was 0.26. For G10A C11G U80C the value was 0.08; for C11A C38A U41A C62U U76A, 0.03; for C11U U31A A35G A45G U54C, 0.9. Turning to C11G A13G U43C A57G U76G, the self-cleavage came out at 0.24. Take G10U C23U G73U: the self-cleavage is 0.07.

As for C11G U26C A35G U78C, the self-cleavage is 0.27. For C11U A15G A21G U48C the value was 0.2; for C11A G33A U48C, 0.05; for C12A A13U U48G U51C U78A, 0.62. In the case of C11G U26A C40G U41C A65G, the self-cleavage stood at 0.06. For C11U A28G U41C U66C the value was 0.07; for C11A A13C A15U A45G U51G U58C, 0.1. Turning to G10A C11U U31C G36U A57G, the self-cleavage stood at 0.03. For the variant C11A G22U U25C G73A U76C, the self-cleavage came to 0.4.

The values are drawn from the RNAGym collection of RNA variant scans (doi:10.1093/nar/gkz1192).
